Data reported in PubChem BioAssay AID1346428 (National Center for Advancing Translational Sciences (NCATS), 2018).
Where “and” joins values, the source holds several entries; their conditions need not be identical. Identical values can stand only once. The campaign covered roughly 48,000 compounds. About 1,200 (2.5%) were called active. Another 2% or so got no clear call; they are omitted.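 The calls were made as follows: active = activation of at least 60% and not above a set upper limit (about 1 call in 100 departs from these limits); inconclusive = activation of 40% to 60%, or above that upper limit; inactive = activation under 40%.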 Some of the results follow.

These molecules were tested against Probable G-protein coupled receptor 32 (Homo sapiens) (UniProt O75388) (assay: qHTS for Agonists of Human Resolvin D1 Receptor DRV1). Conditions: CHO-K1 GPR32 beta-arrestin PathHunter luminescence, 90 min; at 76.9 µM; active compounds read high; zero percent set by DMSO-only wells.
How it was run: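 Step 1: seed CHO-K1 GPR32 beta-arrestin cells, 2,500/well, overnight at 37 °C. Step 2: add compounds, 90 min at 37 °C. Step 3: detection reagent, 1 h ambient, then luminescence.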
Also: 0% is about no effect.

Sequence of UniProt O75388 (O75388 whole entry, looked up): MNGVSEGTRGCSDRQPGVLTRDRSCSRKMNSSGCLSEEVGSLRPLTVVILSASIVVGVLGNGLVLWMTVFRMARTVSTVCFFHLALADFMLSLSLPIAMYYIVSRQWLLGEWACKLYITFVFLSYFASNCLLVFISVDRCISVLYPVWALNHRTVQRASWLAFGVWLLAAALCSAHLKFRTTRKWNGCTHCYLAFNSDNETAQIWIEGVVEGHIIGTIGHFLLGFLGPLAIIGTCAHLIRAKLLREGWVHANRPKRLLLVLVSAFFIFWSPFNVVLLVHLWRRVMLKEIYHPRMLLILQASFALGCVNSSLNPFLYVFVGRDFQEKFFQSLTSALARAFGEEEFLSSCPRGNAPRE

activation, inactive:
CCN(CC)CCN(C(=O)c1ccco1)c1nc2ccc(Cl)cc2s1 45.3%
Cn1c(SCc2ccc(F)cc2)nc2ccc(C(=O)NCc3ccc(F)cc3)cc21 2.74%
Cc1nn(CC(=O)NC2CC2)c(=O)c2cc3ccccc3n12 5.16%
Nc1ccn([C@H]2CC[C@@H](CO)O2)c(=O)n1 5.14% and 7.57%
COCCn1c(SCC(=O)c2cc(C)ccc2C)nc2cc(C(=O)NC3CCCC3)ccc2c1=O 0.748%
Cc1cc(C)cc(NC(=O)c2cc(S(=O)(=O)N3CCCCCC3)cn2C)c1 -27.4%
Cc1ccc(-n2nc3c(N4CCC(C(=O)NC(C)C)CC4)nnc(C)c3c2C)cc1 -8.62%
Cc1ccc(C2Nc3ccccc3-n3c(-c4ccccc4)c4c(=O)n(C)c(=O)n(C)c4c32)o1 (stereo unspecified) -7.09%
Cc1ccc(NC(=O)Cn2c(-c3ccc4c(c3)OCO4)cn(-c3ccccc3)c2=O)cc1C -21.1%
CCC1CN(C(=O)N2CCC(C(=O)NCc3ccc(OC)cc3OC)CC2)c2cc(C)ccc2O1 (stereo unspecified) -20.2%
CCOc1ccc(-c2nc(SC(C(C)=O)C(=O)N(C)C)c3c(=O)n(C)c(=O)n(C)c3n2)cc1 (stereo unspecified) 12.9%
Cc1c(Cl)cccc1-n1ncc(C(=O)Nc2ccc3c(c2)OCCO3)c1C1CCN(C(=O)OC(C)(C)C)CC1 -28.7%
COc1ccc(-c2nn(C)c3sc(C(=O)Nc4cccc(F)c4)cc23)cc1OC -7.25%
CCc1ccc(NC(=O)c2ccc3c(c2)nnn3CC)cc1 12.9%
Cc1ccc2cc3cc(C(=O)Nc4ccc(F)cc4Cl)oc3nc2c1 -7.96%
Cc1ccccc1OCC(=O)OCc1cc(=O)n2ccsc2n1 8.24%
CCN(CC)S(=O)(=O)c1ccc2c(c1)N(CC(=O)N1CCN(c3cccc(C(F)(F)F)c3)CC1)C(=O)CO2 -20.5%
COc1ccccc1CNc1ccc(-c2nc(C(C)C)no2)cc1[N+](=O)[O-] -22.4%
Cc1ccc(CCNC(=O)CN(c2ccc(C)cc2)S(=O)(=O)c2c(C)noc2C)cc1 -6.9%
CN(C)c1ccc(CNc2nc(-c3ccco3)nn2S(=O)(=O)c2ccc3ccccc3c2)cc1 -25.8%
O=C(CSc1nc2c(c(=O)[nH]1)CCC2)Nc1ccccc1F 0.82%
Cc1cc(C)c2c(CC(=O)N(Cc3ccc(N(C)C)cc3)Cc3ccco3)coc2c1 -9%
CCOc1ccc(CNC(=O)c2cc3oc4ccccc4c3n2C)cc1 -16.8%
Cc1ccc(C)c(NC(=O)Cn2cc(C(=O)c3ccncc3)c(=O)c3cc(F)ccc32)c1 -2.22%
COc1ccc(NC(=O)Cn2cnc3sc(C)c(S(=O)(=O)N4CCN(C)CC4)c3c2=O)cc1OC -4.41%
COc1cccc(-c2nc(-c3ccc(-c4ccccc4)nc3OC)no2)c1 -6.36%
CCOC(=O)C1CCN(C(c2ccccc2OC)c2c(O)cc(C)n(CCOC)c2=O)CC1 (stereo unspecified) -4.33%
Cc1ccc(C(=O)Nc2ccc(Cl)c(-c3nc4ncccc4o3)c2)c(C)c1 1.42%
Cc1ccccc1OCc1ccc(-c2nc(C#N)c(NCCCN(C)C)o2)o1 -1.91%
Cn1nnnc1SCCCNCc1cccc(OCc2ccc(Cl)cc2)c1 -0.582%
CN(C(=O)C(Cl)Cl)c1ccc(OC(=O)c2ccco2)cc1 -0.0861%
O=C(Nc1ccc(F)cc1)[C@H](Cc1ccccc1)N1Cc2ccccc2C1=O -20.7%
CCOc1ccccc1NC(=O)C1CCN(S(=O)(=O)c2c(C)noc2/C=C/c2ccc(C)cc2)CC1 19.7%
CCOc1ccc(C(=O)NCCn2cc(SCC(=O)NCCc3ccc(OC)c(OC)c3)c3ccccc32)cc1 27.8%
COC(=O)c1ccc(Nc2ncnc3c2nc2n3CCCC2)cc1 -4.92%
COc1cc(/C=C/C(N)=O)cc(OC)c1OC -26%
COc1ccccc1OCCn1cc(C(=O)c2cccs2)c2ccccc21 -27.9%
O=C(c1cc2c(=O)oc3ccccc3c2s1)N1CCN(c2cccc(Cl)c2)CC1 30.2%
COc1ccc(Cl)cc1NC(=O)Cn1ccn(Cc2ccc(C)cc2)c(=O)c1=O -11.3%
Cc1cccc(-n2c(SCC(N)=O)nc3c(oc4ccccc43)c2=O)c1 -8.47%
COc1ccccc1-c1nc(-c2ccc(Br)o2)no1 -14.2%
CCOC(=O)N1CCN(C(=O)CN(c2cccc(Cl)c2C)S(=O)(=O)c2ccc(C)cc2)CC1 -3.8%
O=C(Nc1ccccc1)c1cccc2c(=O)c3c([nH]c12)CCCC3 7.78%
Cc1noc(Cn2c(=O)c3cc4c(cc3n(CC(=O)Nc3cccc(Cl)c3)c2=O)OCO4)n1 3.78%
O=C(Nc1ccc(SC(F)F)cc1)c1cc(-c2ccc3c(c2)OCCO3)on1 -6.19%
COc1ccc(NC(=O)[C@@H](c2ccccc2)N2Cc3ccccc3C2=O)cc1OC -3.24%
CC(=O)Nc1nonc1-c1nnc(SCC(=O)Nc2ccc(C)cc2C)n1C -18.9%
CCOc1ccc(CNC(=O)c2c(C)nn(-c3ccc(F)cc3)c2-n2cccc2)cc1 -18.3%
CC1CCc2c(sc(NC(=O)COc3ccccc3)c2C(=O)Nc2ccccc2Cl)C1 (stereo unspecified) 5.36%
CN(C)CCOC(C)(c1ccccc1)c1ccccn1 (stereo unspecified) 18.9% and 5.61%
Cc1ccc(-n2nc(C(=O)NCCN(C)C)c(=O)n(C)c2=O)cc1 -1.78%
Cc1ccc(CSCC(=O)N2CCN(c3cc(Cl)ccc3C)CC2)cc1 -24.3%
C=CCNC(N)=S -0.854%
Cc1ccc2oc(C(=O)N(Cc3ccccc3F)C3CCS(=O)(=O)C3)c(C)c2c1 (stereo unspecified) -25.5%
Cc1[nH]c2ccccc2c1C(=O)C(=O)NC1CC(=O)N(c2cccc(F)c2)C1 (stereo unspecified) -1.99%
COc1cccc(-c2cc(=O)c3ccccc3o2)c1N -11.3%
COc1cccc(NC(=O)CC2C(=O)OCCN2Cc2ccccc2)c1 (stereo unspecified) 4.8%
COc1ccc(C2C(C(N)=O)=C(C)Nc3nc(-c4ccccc4Cl)nn32)cc1 (stereo unspecified) -20%
CC(=O)c1ccc2c(c1)N(CCCN(C)C)c1ccccc1S2 16.5%
Cc1ccc(-c2nn(CC(=O)NC3CCCCC3)c3c2cnc2ccc(F)cc23)cc1C -8%
CCOc1cccc2cc(-c3nnc(Nc4ccc(F)c(Cl)c4)s3)c(=O)oc12 7.36%
CCCCOc1ccc(-c2cc3c(=O)n(CC(=O)Nc4ccc(Cl)cc4Cl)ccn3n2)cc1 6.52%
O=C(CSc1nc2c(cnn2-c2ccc(F)cc2)c(=O)[nH]1)Nc1ccc(Br)cc1 39.9%
Cn1c(=O)[nH]c(=O)c2c1nc1n(CCO)c(-c3ccccc3)cn21 5.55%
COc1ccccc1CNC(=O)c1ccc2c(c1)sc1nc(-c3ccc(F)cc3)cn12 -14.9%
CC(C)C(=O)OC1=CN(Cc2ccccc2)S(=O)(=O)c2ccccc21 -6.51%
COc1cccc(CNC(=O)c2cc(=O)[nH]c3ccc(S(=O)(=O)N4CCCCC4)cc23)c1 -3.54%
Cc1ccc(Cl)cc1NC(=O)CN(C)S(=O)(=O)c1ccc2c(c1)n(C)c(=O)c(=O)n2C -17.1%
Cc1cccc(C)c1Nc1c(-c2ccc(Cl)s2)nc2ncccn12 -15.4%
COCCNC(=O)CCc1nc2cccnc2n1Cc1ccc(OC)cc1 -7.43%
CCc1ccc(OC(C)C(=O)Nc2c(C(=O)c3ccccc3)oc3ccccc23)cc1 (stereo unspecified) -29.4%
COc1ccc(Cl)cc1NC(=O)c1cc2c(s1)-c1ccccc1OC2 -5.8%
CS(=O)(=O)N(CC(=O)NCCSc1ccccc1)c1cc(C(F)(F)F)ccc1Cl 20%
Oc1c(Br)cc(Br)cc1-c1nc2ccccc2s1 -4.23%
COc1ccc(OC)c(NC(=O)CSc2cn(CC(=O)N3CCOCC3)c3ccccc23)c1 -22%
COc1cccc(C2C(C(=O)Nc3ccccc3)=C(C)Nc3nc(-c4ccccc4)nn32)c1 (stereo unspecified) -11%
Cc1ccc(-c2nc(CS(=O)CC(=O)N3CCN(c4ccccc4)CC3)c(C)o2)cc1 (stereo unspecified) -6.83%
O=C(c1ccccc1)c1ccccc1NC(=O)c1ccccc1C(=O)O -6.94%
CCCN(CCC)C(=O)C1CCCN(S(=O)(=O)c2ccc3c(c2)oc(=O)n3C)C1 (stereo unspecified) -30.3%
COc1ccc(-c2noc(-c3ccc(NC4CCCC4)c([N+](=O)[O-])c3)n2)cc1 -20.4%
CC(=O)c1ccc(N2CCN(C(=O)c3cc4cc5cc(C)ccc5nc4s3)CC2)cc1 -7.81%
CCN(CC)c1cc(C)c2cc(NC(=O)/C=C/c3ccc(C)cc3)ccc2n1 12.2%
C[N+](C)(C)CCO -4.9%
CCCCCCCCCCCCCCC[C@H](O)[C@H](N)CO 6.16%
Cc1ccc(C(=O)c2oc3ccccc3c2NC(=O)c2cc(-c3ccccc3)on2)cc1F -5.06%
Cc1ccc(C)c(NC(=O)C2CCCN(S(=O)(=O)c3ccc4[nH]c(=O)ccc4c3)C2)c1 (stereo unspecified) -12.7%
